The campaign covered roughly 360,000 compounds. About 11,000 (3.1%) were called active. Inconclusive results, whose numbers are uncertain, are shown with a selection of clear calls. Calls come from the whole dose curve; as a rule, active = well fitted inhibition curve with a large enough effect; inconclusive = small, poorly fitted or top-dose-only effect; inactive = no such curve, though single readings can be large or run the other way. Potencies of inconclusive entries are left out as doubtful fits.
Target: Schistosoma mansoni thioredoxin glutathione reductase (TGR) (UniProt Q962Y6)
Experiment: qHTS Assay for the Inhibitors of Schistosoma Mansoni Peroxiredoxins; note: nearly all actives have a fitted effect of over 60% in size
Details: purified TGR, DTNB reduction, TNB absorbance 405 nm; series mostly up to 114 µM
Method in brief: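 Kinetic colorimetric format: TGR-catalysed, NADPH-driven DTNB reduction monitored via TNB absorbance. Enzyme dispensed at 20 nM; compound exposure 15 min at room temperature before reaction start.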
Potency is the fitted concentration of half-maximal effect; tags give direction and shape of the fitted curve.

**Q.** O=C(O)CCN1C(=O)/C(=C\c2ccc(-c3nc4ccccc4s3)o2)SC1=S was tested. Which Potency did it give?
**A.** active: 50.1 µM

**Q.** With COC(=O)c1c(NC(=O)CCS(=O)(=O)c2ccccc2)sc2c1CCN(C)C2 as the compound, how does the Potency read?
**A.** inconclusive [inhibitor, full curve, poor fit]

**Q.** For CN(C)CCCN1C(=O)c2oc3ccccc3c(=O)c2C1c1cccs1 (centres undefined), which Potency is on record?
**A.** inconclusive [inhibitor, partial curve]

**Q.** Which Potency does the source give for CCOc1ccc(NS(=O)(=O)c2ccc(C(=O)N3CCCCCC3)cc2)cc1 here?
**A.** inactive

**Q.** Which Potency does the source give for COc1ccc(C(=O)/C=C/c2cc(OC)c(O)c(OC)c2)c(F)c1 here?
**A.** active: 50.1 µM

**Q.** For O=S(=O)(c1ccc(NC(=S)NCc2ccc(F)cc2)cc1)N1CCOCC1, which Potency is on record?
**A.** inconclusive [inhibitor, full curve, poor fit]

**Q.** With Cc1cccc(C)c1NC(=O)CNC(=O)c1ccc2ccccc2n1 as the compound, how does the Potency read?
**A.** inactive

**Q.** With O=C(NCc1ccco1)c1ccc(CS(=O)(=O)c2cccc(C(F)(F)F)c2)o1 as the compound, how does the Potency read?
**A.** inconclusive [inhibitor, partial curve]

**Q.** With CC(C)CC(NC(=O)CCl)c1ccccc1 (centres undefined) as the compound, how does the Potency read?
**A.** active: 39.8 µM

**Q.** With CC(=O)Nc1ccc(S(=O)(=O)N2CCN(Cc3cccnc3)CC2)cc1 as the compound, how does the Potency read?
**A.** inactive

**Q.** CCCOC(=O)Cn1c(=O)c2cc3c(=O)n(CC(=O)OCCC)c(=O)c3cc2c1=O was tested. Which Potency did it give?
**A.** inconclusive [inhibitor, single point]

**Q.** For Cc1ccc(S(=O)(=O)CCc2nc3ccccc3n2CCC#N)cc1, which Potency is on record?
**A.** inconclusive [inhibitor, single point]

**Q.** Which Potency does the source give for NS(=O)(=O)c1cccnc1Nc1cccc(Cl)c1 here?
**A.** inconclusive [inhibitor, single point]

**Q.** For CSc1nc2ncc(C(=O)O)c(N)n2n1, which Potency is on record?
**A.** inconclusive [inhibitor, single point]

**Q.** For CCOC(=O)c1c(C)[nH]c(C(=O)C(C)Cl)c1C (centres undefined), which Potency is on record?
**A.** inconclusive [inhibitor, full curve]

**Q.** With COc1ccc(CN2CCNC(=O)C2CC(=O)NC2CCOCC2)cc1C (centres undefined) as the compound, how does the Potency read?
**A.** inconclusive [inhibitor, single point]

**Q.** CCOC(=O)c1cccc(NC(=O)N2CC(CC)Oc3ccccc32)c1 (centres undefined) was tested. Which Potency did it give?
**A.** inactive

**Q.** With CC/C(C)=N\N=C\c1c(O)n(CC)c2cc(C3=NNC(=O)CC3)ccc12 as the compound, how does the Potency read?
**A.** inconclusive [inhibitor, partial curve]

**Q.** How did the Potency turn out when COc1cccc(-c2nc(CS(=O)(=O)CC(=O)NC3CC3)c(C)o2)c1 was run?
**A.** inconclusive [inhibitor, full curve]

**Q.** Cc1cc(Oc2cc(N)cc([N+](=O)[O-])c2)ccc1Cl was tested. Which Potency did it give?
**A.** inactive

**Q.** With Cc1nc(CC(=O)NNS(=O)(=O)c2ccc(F)c(Cl)c2)cs1 as the compound, how does the Potency read?
**A.** inconclusive [inhibitor, single point]

**Q.** With CCCCN1C(=O)NC(=O)C2(Cc3c(nc4c(C)cccn4c3=O)N3CCc4ccccc4C32)C1=O (centres undefined) as the compound, how does the Potency read?
**A.** inconclusive [inhibitor, single point]

**Q.** Which Potency does the source give for C#CCSC1=C(C#N)C(c2cccs2)C(C(=O)OCC)=C(C)N1 (centres undefined) here?
**A.** inconclusive [inhibitor, partial curve]

**Q.** Cc1cc(C(=O)NC(=S)Nc2cccc(C(=O)O)c2C)ccc1[N+](=O)[O-] was tested. Which Potency did it give?
**A.** inconclusive [inhibitor, full curve, poor fit]

**Q.** With O=C(COC(=O)c1cccc([N+](=O)[O-])c1)NCC1CCCO1 (centres undefined) as the compound, how does the Potency read?
**A.** inconclusive [inhibitor, single point]

**Q.** How did the Potency turn out when C=CCn1c(SCC(=O)OCC)nc2cc(C(=O)NCc3ccco3)ccc2c1=O was run?
**A.** inactive

**Q.** How did the Potency turn out when COc1cccc(NC(=O)C(=O)NCC(c2ccc3c(c2)OCO3)N2CCOCC2)c1 (centres undefined) was run?
**A.** inactive

**Q.** With COC(=O)CSC1=C(C#N)C(c2cccc(F)c2)CC(=O)N1 (centres undefined) as the compound, how does the Potency read?
**A.** inconclusive [inhibitor, full curve, poor fit]

**Q.** With COC(=O)c1ccc(NC2=C(Cl)C(=O)OC2OC(=O)c2ccccc2)cc1 (centres undefined) as the compound, how does the Potency read?
**A.** inconclusive [inhibitor, full curve]

**Q.** Which Potency does the source give for CC(=O)c1ccc2c(c1)C1C=CCC1C(c1ccncc1)N2 (centres undefined) here?
**A.** inconclusive [inhibitor, full curve]

**Q.** For O=C(COc1cc2oc(=O)cc(-c3ccccc3)c2cc1Cl)NC(Cc1c[nH]c2ccc(O)cc12)C(=O)O (centres undefined), which Potency is on record?
**A.** inactive

**Q.** Which Potency does the source give for COc1ccc(CCNS(=O)(=O)c2cccs2)cc1 here?
**A.** inactive

**Q.** How did the Potency turn out when CCc1ccc(S(=O)(=O)c2c[nH]c3cc(OC)c(OC)cc3c2=O)cc1 was run?
**A.** inactive

**Q.** Which Potency does the source give for CCOc1cc(C2C(C#N)=C(N)OC(C)=C2C(C)=O)c(Br)c(Br)c1OC(C)C (centres undefined) here?
**A.** inconclusive [inhibitor, partial curve]

**Q.** O=c1c2ccccc2nc2c3ccccc3c(NCc3ccco3)nn12 was tested. Which Potency did it give?
**A.** inconclusive [inhibitor, partial curve]

**Q.** Which Potency does the source give for O=C1C=C(c2ccc(-c3ccccc3)cc2)C[C@@H](c2ccc3c(c2)OCO3)C1 here?
**A.** inconclusive [inhibitor, partial curve]

**Q.** With CCC(=O)N1CCN(CCN=Cc2c(O)n(C)c(=O)n(C)c2=O)CC1 as the compound, how does the Potency read?
**A.** inconclusive [inhibitor, partial curve]

**Q.** For CCc1nc(C)cn1S(=O)(=O)c1cc([N+](=O)[O-])ccc1Cl, which Potency is on record?
**A.** inconclusive [inhibitor, partial curve]

**Q.** CN(C(=O)CSc1ncnc2sc3c(c12)CCC3)C1CCS(=O)(=O)C1 (centres undefined) was tested. Which Potency did it give?
**A.** inconclusive [inhibitor, full curve, poor fit]

**Q.** For COC(=O)c1ccc([C@H]2Nc3ccc(S(=O)(=O)Nc4ccc(C)cc4)cc3[C@H]3C=CC[C@H]32)cc1, which Potency is on record?
**A.** inconclusive [inhibitor, full curve]

**Q.** COc1ccc2ccccc2c1C1CC(=O)N2CN(C3CCCCC3)CSC2=C1C#N (centres undefined) was tested. Which Potency did it give?
**A.** active: 28.2 µM

**Q.** How did the Potency turn out when Cc1c(NC(C)C)c(=O)n(-c2ccccc2)n1C was run?
**A.** inconclusive [inhibitor, partial curve, poor fit]

**Q.** For CCN(C(=O)CSc1nnc(-c2ccco2)n1Cc1ccccc1)C1CCS(=O)(=O)C1 (centres undefined), which Potency is on record?
**A.** inconclusive [inhibitor, partial curve]

**Q.** CCOc1ccc(NC(=O)Cc2ccc(NC(=O)N3CCCCc4ccccc43)cc2)cc1 was tested. Which Potency did it give?
**A.** inactive

**Q.** With Cc1ccc(-n2ncc(C(=O)N3CCN(C(=O)c4ccco4)CC3)c2C2CCN(C(=O)OC(C)(C)C)CC2)cc1C as the compound, how does the Potency read?
**A.** inconclusive [inhibitor, partial curve]

**Q.** For O=C(Nc1ccc(F)cc1)C1=CC(=O)N2CCN=C2S1, which Potency is on record?
**A.** inconclusive [inhibitor, partial curve]

**Q.** How did the Potency turn out when c1ccc(Cn2nnc3c(NCC4CCCO4)nc(C4CC4)nc32)cc1 (centres undefined) was run?
**A.** inactive

**Q.** O=C(NCc1ccco1)c1c[nH]c2ccc(S(=O)(=O)Nc3ccc(F)cc3F)cc2c1=O was tested. Which Potency did it give?
**A.** inconclusive [inhibitor, partial curve]

**Q.** With O=C(CSc1nnc(Nc2ccccc2)s1)NCc1ccco1 as the compound, how does the Potency read?
**A.** inconclusive [inhibitor, single point]

**Q.** For CCCNC(=O)CS(=O)(=O)Cc1nc(-c2cccc(OC)c2)oc1C, which Potency is on record?
**A.** active: 22.4 µM

**Q.** CCOP(=O)(Cc1ccc(C(=O)CC)o1)OCC was tested. Which Potency did it give?
**A.** inconclusive [inhibitor, partial curve]

**Q.** Which Potency does the source give for Cc1c(-c2cc[n+]([O-])cc2)oc2ccc(Br)cc2c1=O here?
**A.** inconclusive [inhibitor, single point]

**Q.** With CCC(=O)Nn1c(C)nnc1C as the compound, how does the Potency read?
**A.** inconclusive [inhibitor, single point]

**Q.** COc1ccc(C(=O)NCC(=O)N2CCN(C(=O)c3ccco3)CC2)cc1 was tested. Which Potency did it give?
**A.** inconclusive [inhibitor, full curve, poor fit]

**Q.** With Cn1c(SCC(=O)N/N=C/c2ccc([N+](=O)[O-])s2)nnc1-c1ccccc1 as the compound, how does the Potency read?
**A.** inconclusive [inhibitor, partial curve]

**Q.** For O=C(NCc1ccccc1)C1CCCN(C(=O)c2ccc(F)cc2)C1 (centres undefined), which Potency is on record?
**A.** inactive

**Q.** Which Potency does the source give for Cc1ccc(Cc2c(C)nc3nc(SCC(=O)NCc4ccco4)nn3c2C)cc1 here?
**A.** active: 39.8 µM

**Q.** With CO/N=C/NC(=O)C1=NOC(CNc2ncc(C(F)(F)F)cc2Cl)C1 (centres undefined) as the compound, how does the Potency read?
**A.** inconclusive [inhibitor, single point]

**Q.** Which Potency does the source give for CN(C)/C=N/c1c(C(=O)NCc2ccccc2)nnn1Cc1ccccc1 here?
**A.** inactive

**Q.** Which Potency does the source give for c1ccc(CSc2nnc(-c3ccco3)n2Cc2ccccc2)cc1 here?
**A.** inconclusive [inhibitor, partial curve]

**Q.** For O=[N+]([O-])c1cc(S(=O)(=O)C(F)(F)F)ccc1Sc1nc2ccccc2[nH]1, which Potency is on record?
**A.** active: 28.2 µM

**Q.** How did the Potency turn out when Cc1nn(Cc2ccccc2)c(C)c1NC(=O)c1cc2nc(-c3ccco3)cc(C(F)(F)F)n2n1 was run?
**A.** inconclusive [inhibitor, partial curve]

**Q.** With CCCCCOc1ccc(C2C(C(=O)c3ccc(C)o3)=C(O)C(=O)N2c2cc(C)on2)cc1 (centres undefined) as the compound, how does the Potency read?
**A.** inconclusive [inhibitor, partial curve]

**Q.** With O=C(NC1CCCCC1)Sc1ccc(Cl)cc1 as the compound, how does the Potency read?
**A.** inconclusive [inhibitor, full curve, poor fit]

**Q.** Which Potency does the source give for Nc1nc(SCC(=O)c2ccc([N+](=O)[O-])cc2)n[nH]1 here?
**A.** inconclusive [inhibitor, partial curve]

**Q.** With Cc1c(Cl)ccc2sc(NC(=O)c3ccc(S(=O)(=O)N4CCCC4)cc3)nc12 as the compound, how does the Potency read?
**A.** inactive

**Q.** Which Potency does the source give for COc1ccccc1NC(=S)N1CCN(c2ccccc2F)CC1 here?
**A.** inactive

**Q.** With CCOc1ccc(CC(C(N)=O)C(N)=O)cc1CN(C)C as the compound, how does the Potency read?
**A.** inactive

**Q.** For CCOC(=O)N1CCc2c(sc3c2c(=O)n(Cc2ccccc2)c(=O)n3CC(=O)NCC2CCCO2)C1 (centres undefined), which Potency is on record?
**A.** inactive
